First the molecules themselves.
B1: TEV protease; numbered along this chain (parent)
chain: MGESLFKGPRDYNPISSSICHLTNESDGHTTSLYGIGFGPFIITNKHLFRRNNGTLVVQSLHGVFKVKDTTTLQQHLVDGRDMIIIRMPKDFPPFPQKLKFREPQREERICLVTTNFQTKSMSSMVSDTSCTFPSGDGIFWKHWIQTKDGQCGSPLVSTRDGFIVGIHSASNFTNTNNYFTSVPKNFMELLTNQEAQQWVSGWRLNADSVLWGGHKVFMVKPEEPFQPVKEATQL

The variants in the test derive from B1. The experiment in a line: raw area under fraction-flipped curve 0-4 h after induction (AUC4h, not background-subtracted), DNA-recorder readout of cleavage of the substrate (dimensionless); higher = more cleavage of the substrate by the protease variant. The following applies: temperature: 34 °C; time window: 0-4 h after rhamnose induction.

This is one part of the list. Sequences were assembled here from the parent chain. Inactive controls read about 0.05.
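Note: Bxb1 expression induced with 0.2% (w/v) L-rhamnose at OD600 near 0.5, cultures sampled hourly, flipped fraction per protease–substrate barcode pair counted by paired-end Illumina sequencing.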

For the variant MGESLFKGPRDYNPISSSICHLTNEGDGHTTSLYGIGFGPFIITNKHLFRRNNGTLVVQSLHGVFKVKDTTTLQQHLVDGRDMIIIRMPKDFPPFPQKLKFREPQREERICLVTTNFQTKSMSSMVSDTSCTFPSGDGIFWKHWIQTKDGQCGSPLVSTRDGFIVGIHSASNFTNTNNYFTSVPKNFMELLTNQEAQQWVSGWRLNADSVLWGGHKVFMVKPEEPFQPVKEATQL [S26G], the “area with substrate ENDYFQS” value was found to be 0.0578, the “area with substrate ENEYFQS” value worked out at 0.0625, the “area with substrate ENFYFQS” value was 0.0619 and the “area with substrate ENHYFQS” value is 0.0564. Moreover, the “area with substrate ENQYFQS” value was 0.0488, the “area with substrate ENSYFQS” value stood at 0.0534, the “area with substrate ENVYFQS” value was determined as 0.0717 and the “area with substrate ENWYFQS” value worked out at 0.0415. For the same variant, the “area with substrate ENYYFQS” value amounted to 0.0818.

As for MGESLFKGPRDYNPISSSICHLTNESDGHTTSLYGIGFGPFIITNKHLFRRNNGTLVVQSLHGVFKVKDTTTLQQHLVDGRDMIIIRMPKDFPPFPQKLKFREPQREERICLVTTNFQTKSMSSMVSDTSCTFPSGDGIFWKHWIQTKDGQCGSPLVSTRDGFIVGIHSASNFTNTNNLFTSVPKNFMELLTNQEAQQWVSGWRLNADSVLWGGHKVFMVKPEEPFQPVKEATQL [Y179L], the “area with substrate ENCYFQS” value was 0.0737, the “area with substrate ENDYFQS” value worked out at 0.0486, the “area with substrate ENEYFQS” value turned out to be 0.0407 and the “area with substrate ENFYFQS” value came out at 0.12. Besides, the “area with substrate ENIYFQS” value came to 0.0828, the “area with substrate ENNYFQS” value came out at 0.0593, the “area with substrate ENPYFQS” value was determined as 0.0691 and the “area with substrate ENSYFQS” value was 0.063. The “area with substrate ENVYFQS” value turned out to be 0.0553.

In the case of MGESLFKGPRDYNPISSSICHLTNESDGHTTSLYGIGFGPFIITNKHLFRRNNGTLVVQSLHGVFKVKDTTTLQQHLVDGRDMIIIRMPKDFPPFPQKLKFREPQREERICLVTTNFQTKSMSSMVSDTSCTFPSGDGIFWKHWIQTKDGQCGSPLVSTRDGFIVGIHSASNFTNTNNYFTSVPKNFMELLTNQEAQQWVSLWRLNADSVLWGGHKVFMVKPEEPFQPVKEATQL [G202L], the “area with substrate ENCYFQS” value was 0.0647, the “area with substrate ENDYFQS” value amounted to 0.0584, the “area with substrate ENEYFQS” value was found to be 0.0442 and the “area with substrate ENHYFQS” value is 0.0553. The “area with substrate ENIYFQS” value was found to be 0.0579, the “area with substrate ENRYFQS” value turned out to be 0.0692, the “area with substrate ENSYFQS” value is 0.0677 and the “area with substrate ENTYFQS” value was 0.0821. The “area with substrate ENVYFQS” value stood at 0.0645 and the “area with substrate ENYYFQS” value was determined as 0.0683.

For MGESLFKGPRDYNPISSSICHLTNESDGHTTSLYGIGFGPFIITNKHLFRRNNGTLVVQELHGVFKVKDTTTLQQHLVDGRDMIIIRMPKDFPPFPQKLKFREPQREERICLVTTNFQTKSMSSMVSDTSCTFPSGDGIFWKHWIQTKDGQCGSPLVSTRDGFIVGIHSASNFTNTNNYFTSVPKNFMELLTNQEAQQWVSGWRLNADSVLWGGHKVFMVKPEEPFQPVKEATQL [S60E], the “area with substrate ENDYFQS” value stood at 0.0499, the “area with substrate ENEYFQS” value worked out at 0.0388, the “area with substrate ENFYFQS” value came out at 0.0486 and the “area with substrate ENGYFQS” value amounted to 0.0536. Further, the “area with substrate ENHYFQS” value came to 0.054, the “area with substrate ENIYFQS” value was 0.0507, the “area with substrate ENKYFQS” value came out at 0.0497 and the “area with substrate ENQYFQS” value was determined as 0.0515. Moreover, the “area with substrate ENSYFQS” value worked out at 0.0455, the “area with substrate ENTYFQS” value came to 0.0581, the “area with substrate ENVYFQS” value turned out to be 0.0507 and the “area with substrate ENWYFQS” value was 0.0239.

As for MGESLFKGPRDYNPISSSICHLTNESDGHTTSLYGIGFGPFIITNKHLFRRNNGTLVVQSLHGVFKVKDTTTLQQHLVDGRDMIIIRMPKDFPPFPQKLKFREPQREERICLVTTNFQTKSMSSMVSDTSCTFPSGDGIFWKHWIQTKDGQCGSPLVSTRDGFIVGIHSASNFTNTNNYFTSVPKNFMELLTNQEAQQWVSGWRLNADSVLWGGHKVFMVKPEEPFTPVKEATQL [Q227T], the “area with substrate ENCYFQS” value was 0.0539, the “area with substrate ENDYFQS” value is 0.0508, the “area with substrate ENEYFQS” value is 0.0653 and the “area with substrate ENIYFQS” value came to 0.121. Further, the “area with substrate ENKYFQS” value is 0.0672, the “area with substrate ENPYFQS” value was 0.0613 and the “area with substrate ENRYFQS” value was 0.0629.

With MGESLFKGVRDYNPISSSICHLTNESDGHTTSLYGIGFGPFIITNKHLFRRNNGTLVVQSLHGVFKVKDTTTLQQHLVDGRDMIIIRMPKDFPPFPQKLKFREPQREERICLVTTNFQTKSMSSMVSDTSCTFPSGDGIFWKHWIQTKDGQCGSPLVSTRDGFIVGIHSASNFTNTNNYFTSVPKNFMELLTNQEAQQWVSGWRLNADSVLWGGHKVFMVKPEEPFQPVKEATQL [P9V], the “area with substrate ENDYFQS” value came to 0.0541, the “area with substrate ENFYFQS” value came out at 0.0536, the “area with substrate ENHYFQS” value is 0.0603 and the “area with substrate ENIYFQS” value came out at 0.0781. Besides, the “area with substrate ENMYFQS” value worked out at 0.0793, the “area with substrate ENNYFQS” value is 0.0578, the “area with substrate ENQYFQS” value turned out to be 0.0596 and the “area with substrate ENRYFQS” value came out at 0.0591. Also, the “area with substrate ENSYFQS” value turned out to be 0.0597, the “area with substrate ENVYFQS” value came to 0.0618 and the “area with substrate ENWYFQS” value stood at 0.0517.

As to MGESLFKGPRDYNPISSSICHLTNESDGHTTSLYGIGFGPFIIYNKHLFRRNNGTLVVQSLHGVFKVKDTTTLQQHLVDGRDMIIIRMPKDFPPFPQKLKFREPQREERICLVTTNFQTKSMSSMVSDTSCTFPSGDGIFWKHWIQTKDGQCGSPLVSTRDGFIVGIHSASNFTNTNNYFTSVPKNFMELLTNQEAQQWVSGWRLNADSVLWGGHKVFMVKPEEPFQPVKEATQL [T44Y], the “area with substrate ENDYFQS” value worked out at 0.0481, the “area with substrate ENEYFQS” value is 0.0482, the “area with substrate ENFYFQS” value was found to be 0.0487 and the “area with substrate ENIYFQS” value was determined as 0.0484. Moreover, the “area with substrate ENMYFQS” value came out at 0.0444, the “area with substrate ENNYFQS” value was 0.0505, the “area with substrate ENRYFQS” value worked out at 0.0476 and the “area with substrate ENSYFQS” value amounted to 0.0447. The “area with substrate ENTYFQS” value was determined as 0.04, the “area with substrate ENVYFQS” value is 0.0391 and the “area with substrate ENYYFQS” value was determined as 0.0636.

MGESLFKGPRDYNPISSSICHLTNESDGHTTSLYGIGFGPFIITNKHLFRRNNGTLVVQSLHGVFKVKDTTTLQQHLVDGRDMIIIRMPKDFPPFPQKLKFREPQREERICLVTTNFQTKSMSSMVSDTSCTFPSGDGIFWKHWIQTKDGQCGSPLVSTRDGFIVGIHSASNFTNTNNYFTSVPKNFMELLTNQEAQQWVSGWRLNADSVLWGGHKVFMVKPEEPFQPVKEATHL [Q234H]: the “area with substrate ENCYFQS” value is 0.0979, the “area with substrate ENDYFQS” value was 0.11, the “area with substrate ENEYFQS” value came to 0.0533 and the “area with substrate ENHYFQS” value came to 0.0556. The “area with substrate ENIYFQS” value was determined as 0.103, the “area with substrate ENKYFQS” value is 0.0716, the “area with substrate ENMYFQS” value stood at 0.0519 and the “area with substrate ENRYFQS” value turned out to be 0.053. Also, the “area with substrate ENSYFQS” value is 0.0603.

Take MGESLFKGPRDYNPISSSICHLTNESDGHTTSLYGIGFGPFIITNKHLFRRNNGTLVVQSLHGVFKVKDTTTLQQHLVDGRDMIIIRMPKDFPPFPQKLKFREPQREERICLVTTNFQTKSMSSMVSDTSCTFPSGDGIFWKHWIQTKDGQCGSPLVSTRDGFIVGIHSASNFTNTNNYFTSVPKNFMELLTNQEAQQWVLGWRLNADSVLWGGHKVFMVKPEEPFQPVKEATQL [S201L]: the “area with substrate ENCYFQS” value worked out at 0.0715, the “area with substrate ENDYFQS” value was 0.069, the “area with substrate ENEYFQS” value amounted to 0.0626 and the “area with substrate ENHYFQS” value amounted to 0.0652. Further, the “area with substrate ENIYFQS” value was 0.0789, the “area with substrate ENQYFQS” value came to 0.0893, the “area with substrate ENRYFQS” value is 0.0585 and the “area with substrate ENSYFQS” value came to 0.0588. In addition, the “area with substrate ENTYFQS” value was 0.0574, the “area with substrate ENVYFQS” value amounted to 0.0809 and the “area with substrate ENWYFQS” value amounted to 0.0703.

Consider MGESLFKGPRDYNPISSSICHLTNESDGHTTSLYGIGFGPFIITNKHLFRRNNGTLVVQSLHGVFKVKDTTTLQQHLVDGRDMIIIRMPKDFPPFPQKLKFREPQREERICLVTTNFQTKSMSSMVSDTSCTFPSGDGIFWKHWIQTKDGQCGSPLVSTRDGFIVGIHSASNFTNTNNYPTSVPKNFMELLTNQEAQQWVSGWRLNADSVLWGGHKVFMVKPEEPFQPVKEATQL [F180P], for which the “area with substrate ENCYFQS” value turned out to be 0.0532, the “area with substrate ENDYFQS” value amounted to 0.0407, the “area with substrate ENGYFQS” value was 0.0688 and the “area with substrate ENHYFQS” value amounted to 0.0548. Moreover, the “area with substrate ENMYFQS” value worked out at 0.0468, the “area with substrate ENNYFQS” value turned out to be 0.0334, the “area with substrate ENQYFQS” value was determined as 0.051 and the “area with substrate ENRYFQS” value stood at 0.063. The “area with substrate ENSYFQS” value is 0.0506, the “area with substrate ENVYFQS” value stood at 0.0759 and the “area with substrate ENWYFQS” value stood at 0.0486.

These data come from the supplement of paper PMC12217912.
